Some of the results follow. One pool of 16,384 single-stranded DNAs met each Rep nickase domain in vitro for 1 h at 37 °C with 3 µM enzyme; only the middle of the 90-letter strands is printed. Numbers give uncut DNA relative to the enzyme-free pool, as log2; the lower, the more was cut; hits are not called. Because reads are shares of a total, they shift together; values above 0 arise when much of the pool is cut.
How the values were obtained:
Test in all cases: uncleaved DNA left, log2 of reads against the no-enzyme library (log2 ratio); higher = less cleavage (more negative = more Rep cleavage of the k-mer); sequences stand for … in CTCGTCCG…ACCGGAGA
[1] = tested on: T1, Rep nickase domain of Muscovy duck circovirus
T1 sequence (protein, residues 1-111, tag omitted): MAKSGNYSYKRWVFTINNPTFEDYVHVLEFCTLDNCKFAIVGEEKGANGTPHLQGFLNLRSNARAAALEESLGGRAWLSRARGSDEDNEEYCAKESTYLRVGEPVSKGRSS
Protocol: (§1)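 A pool of 90-nt single-stranded DNAs with seven random bases just before the constant AC of the nick site (name = the seven bases) was cut by 3 µM recombinant His6-SUMO-tagged Rep nickase domain (300 nM DNA, 50 mM HEPES pH 8.0, 50 mM NaCl, 1 mM MnCl2, 1 h, 37 °C, three replicates). Uncut DNA was amplified and sequenced.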

[2] = tested on: T2, Rep nickase domain of banana bunchy top virus
T2 sequence (protein, residues 1-94, tag omitted): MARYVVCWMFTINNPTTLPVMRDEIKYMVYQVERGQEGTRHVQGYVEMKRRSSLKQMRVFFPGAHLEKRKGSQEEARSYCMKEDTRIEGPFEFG
Protocol: as §1

[3] = tested on: T3, Rep nickase domain of cabbage leaf curl virus
T3 sequence (protein, residues 1-116, tag omitted): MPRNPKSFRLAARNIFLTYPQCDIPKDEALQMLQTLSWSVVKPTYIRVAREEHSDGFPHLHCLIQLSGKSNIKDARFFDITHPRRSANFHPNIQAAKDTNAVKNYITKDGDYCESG
Protocol: as §1

[4] = tested on: T4, Rep nickase domain of chickpea chlorotic dwarf virus
T4 sequence (protein, residues 1-124, tag omitted): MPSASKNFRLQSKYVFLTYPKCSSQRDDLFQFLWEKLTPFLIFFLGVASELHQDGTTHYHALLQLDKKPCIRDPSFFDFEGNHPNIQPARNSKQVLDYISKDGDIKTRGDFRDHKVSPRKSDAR
Protocol: as §1

[5] = tested on: T5, Rep nickase domain of faba bean necrotic yellows virus
T5 sequence (protein, residues 1-98, tag omitted): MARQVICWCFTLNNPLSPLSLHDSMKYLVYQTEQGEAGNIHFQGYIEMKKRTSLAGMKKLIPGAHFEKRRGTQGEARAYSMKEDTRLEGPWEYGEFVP
Protocol: as §1

[6] = tested on: T6, Rep nickase domain of maize striate mosaic virus
T6 sequence (protein, residues 1-117, tag omitted): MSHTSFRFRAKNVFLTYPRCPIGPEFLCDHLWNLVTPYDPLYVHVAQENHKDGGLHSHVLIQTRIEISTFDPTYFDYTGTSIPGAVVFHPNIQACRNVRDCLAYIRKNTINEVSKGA
Protocol: as §1

[7] = tested on: T7, Rep nickase domain of porcine circovirus 2
T7 sequence (protein, residues 2-116, tag omitted): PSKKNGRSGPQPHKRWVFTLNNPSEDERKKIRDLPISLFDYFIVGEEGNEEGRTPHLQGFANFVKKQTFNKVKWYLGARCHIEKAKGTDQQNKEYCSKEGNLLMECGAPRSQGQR
Protocol: as §1

[8] = tested on: T8, Rep nickase domain of tomato golden mosaic virus
T8 sequence (protein, residues 1-124, tag omitted): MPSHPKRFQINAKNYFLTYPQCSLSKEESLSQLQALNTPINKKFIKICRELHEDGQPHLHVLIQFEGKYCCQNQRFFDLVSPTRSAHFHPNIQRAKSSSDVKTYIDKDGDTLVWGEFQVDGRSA
Protocol: as §1

[9] = tested on: T9, Rep nickase domain of tomato yellow leaf curl virus
T9 sequence (protein, residues 1-136, tag omitted): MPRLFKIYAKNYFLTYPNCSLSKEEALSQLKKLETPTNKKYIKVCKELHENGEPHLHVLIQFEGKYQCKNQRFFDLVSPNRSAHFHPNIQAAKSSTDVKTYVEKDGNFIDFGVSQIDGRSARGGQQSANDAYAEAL
Protocol: as §1

[10] = tested on: T10, Rep nickase domain of wheat dwarf virus
T10 sequence (protein, residues 1-137, tag omitted): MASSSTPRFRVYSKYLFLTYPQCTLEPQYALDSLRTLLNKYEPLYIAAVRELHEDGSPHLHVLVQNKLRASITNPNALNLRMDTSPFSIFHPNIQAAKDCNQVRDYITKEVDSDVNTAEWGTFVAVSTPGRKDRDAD
Protocol: as §1

Row | Sequence | uncleaved DNA left (log2) [1] | uncleaved DNA left (log2) [2] | uncleaved DNA left (log2) [3] | uncleaved DNA left (log2) [4] | uncleaved DNA left (log2) [5] | uncleaved DNA left (log2) [6] | uncleaved DNA left (log2) [7] | uncleaved DNA left (log2) [8] | uncleaved DNA left (log2) [9] | uncleaved DNA left (log2) [10]
1 | AAACCTT | -0.182 | -0.192 | -1.04 | -2.56 | -0.109 | -0.197 | -0.937 | -0.272 | -0.0569 | -0.403
2 | ATCGAAA | 0.04 | 0.0651 | 0.00149 | -0.118 | 0.103 | -0.616 | 0.0363 | 0.0942 | -0.0737 | 0.12
3 | ATCTGAT | -0.0802 | -0.0656 | -0.0552 | 0.527 | -0.142 | 0.986 | -1.31 | 0.148 | -0.0394 | -0.00128
4 | AAGTAAA | -0.0359 | -0.0761 | -0.0629 | -0.345 | 0.124 | -0.162 | -2.99 | 0.124 | -0.0309 | 0.0659
5 | CGCAAGT | 0.0282 | -0.0397 | 0.046 | -0.128 | 0.022 | -0.456 | 0.043 | -0.158 | 0.0347 | -0.0169
6 | ACTTATG | -0.064 | 0.0298 | -0.676 | -0.588 | -0.00807 | -1.07 | 0.0498 | -0.0564 | -0.0802 | -0.0608
7 | CTGCCTT | -0.0867 | -0.181 | -0.168 | -1.55 | -0.207 | -0.225 | -0.256 | -0.0336 | -0.0494 | -0.0359
8 | TATACCC | -0.0908 | -0.218 | 0.0567 | -1.4 | -0.0997 | -0.298 | -0.864 | -0.0445 | -0.0771 | -0.0864
9 | CTCCGTT | 0.203 | -0.00502 | 0.0848 | -0.567 | 0.096 | 0.292 | -0.0769 | -0.00576 | -0.0134 | 0.0856
10 | TCTCCAC | -0.119 | -0.161 | 0.186 | 0.014 | 0.0192 | 0.207 | -0.15 | -0.131 | -0.141 | -0.0881
11 | GAAGTTT | 0.00408 | 0.0558 | -0.918 | -2.04 | 0.0888 | 0.853 | -0.574 | -0.0546 | 0.126 | -0.0753
12 | GAGGAGC | 0.239 | 0.117 | 0.726 | 1.35 | 0.105 | 1.26 | 0.293 | 0.192 | 0.221 | 0.221
13 | GGACGAG | 0.126 | 0.234 | 0.932 | 1.94 | 0.135 | 2.1 | 0.287 | 0.136 | 0.186 | 0.27
14 | AGCGAAG | -0.0453 | 0.0792 | -0.0355 | 0.383 | 0.077 | 1.15 | 0.0407 | 0.0832 | 0.0631 | 0.0441
15 | GGAAAAC | 0.0377 | 0.157 | 0.661 | 1.68 | 0.0253 | 1.99 | 0.157 | 0.0858 | 0.0659 | 0.245
16 | TCGATGG | 0.0187 | -0.0915 | 0.0881 | 0.452 | 0.0195 | 0.349 | 0.0502 | 0.121 | -0.0677 | 0.0183

Row | Sequence | uncleaved DNA left (log2) [1] | uncleaved DNA left (log2) [2] | uncleaved DNA left (log2) [3] | uncleaved DNA left (log2) [4] | uncleaved DNA left (log2) [5] | uncleaved DNA left (log2) [6] | uncleaved DNA left (log2) [7] | uncleaved DNA left (log2) [8] | uncleaved DNA left (log2) [9] | uncleaved DNA left (log2) [10]
17 | TCCGACG | 0.0924 | -0.025 | -0.373 | -0.405 | 0.0419 | -0.76 | 0.0143 | -0.000691 | -0.0568 | 0.041
18 | TTGTAGC | 0.0153 | -0.0585 | -0.532 | -0.751 | -0.119 | -1.35 | -0.0275 | -0.112 | -0.0142 | -0.0733
19 | CCATACT | -3.37 | -0.376 | -2 | -3.19 | -0.0245 | -1.37 | -3.54 | -0.578 | 0.00654 | -0.381
20 | TGACAAG | -0.0854 | -0.0111 | -0.512 | -0.45 | -0.0289 | -1.01 | -0.044 | -0.0247 | 0.114 | -0.0645
21 | CATTGAA | -0.0389 | -0.304 | -0.525 | -0.765 | 0.0857 | -1.2 | -0.521 | 0.00391 | 0.101 | -0.055
22 | TGCAGGC | 0.000859 | -0.0202 | 0.196 | 0.274 | -0.0123 | -0.239 | 0.0834 | 0.0304 | 0.0668 | -0.0779
23 | TATTGAT | -3.47 | -3.32 | -1.14 | -2.09 | -0.0638 | -0.265 | -3.72 | -0.139 | 0.0692 | -0.158
24 | GCAGTGT | 0.0934 | -0.0429 | -0.389 | -0.282 | -0.0454 | -0.885 | 0.0498 | -0.0131 | 0.014 | -0.168
25 | ATCTAGA | 0.0492 | 0.0243 | -0.185 | -0.287 | -0.011 | -0.996 | 0.119 | 0.0689 | -0.0664 | 0.0297
26 | GTCCCAT | 0.208 | 0.336 | 0.515 | 1.15 | 0.119 | 1.91 | 0.333 | 0.189 | 0.236 | 0.317
27 | GGAATAA | -0.00314 | 0.000128 | 0.573 | 1.37 | -0.00129 | 1.86 | 0.126 | -0.042 | 0.0151 | 0.105
28 | AGAACAA | 0.0225 | 0.0266 | 0.4 | 0.729 | 0.055 | 0.532 | 0.0356 | 0.0762 | 0.104 | 0.165
29 | GTCGTCC | 0.0849 | 0.14 | 0.44 | 0.808 | 0.0228 | 1.64 | 0.0607 | 0.0718 | 0.163 | 0.0697
30 | TGGCGCG | -0.187 | -0.121 | -0.869 | -0.126 | -0.06 | -0.772 | 0.0481 | -0.117 | -0.0961 | -0.153
31 | ACATCAT | 0.0648 | 0.115 | 0.0318 | -0.835 | 0.136 | -0.497 | -0.0593 | 0.125 | -0.0682 | 0.0708

Reference: the supplement of paper PMC7826260
